Source: PubChem BioAssay AID1346428 (National Center for Advancing Translational Sciences (NCATS), 2018)
Several values for one entry are separate records, joined by “and”; a condition that tells them apart may be missing. Equal values may be shown once. Out of some 48,000 compounds screened, about 1,200 (2.5%) were called active. Not shown: some 2% with an inconclusive outcome.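 The calls were made as follows: active = activation of at least 60% and not above a set upper limit (about 1 call in 100 departs from these limits); inconclusive = activation of 40% to 60%, or above that upper limit; inactive = activation under 40%.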 Some of the results follow.

The compounds below were run against Probable G-protein coupled receptor 32 (Homo sapiens) (UniProt O75388) (assay: qHTS for Agonists of Human Resolvin D1 Receptor DRV1). Settings: CHO-K1 GPR32 beta-arrestin PathHunter luminescence, 90 min; at 76.9 µM; stronger effect = higher value; zero percent set by DMSO-only wells.
How it was run: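 Cells are plated overnight, treated with compounds in DMSO for 90 minutes at 37 °C, and developed with PathHunter detection reagent for 1 hour before luminescence is read; signal reflects beta-arrestin binding to GPR32 in engineered CHO-K1 cells.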
Also: 0% is about no effect.

Sequence of UniProt O75388 (O75388 whole entry, looked up): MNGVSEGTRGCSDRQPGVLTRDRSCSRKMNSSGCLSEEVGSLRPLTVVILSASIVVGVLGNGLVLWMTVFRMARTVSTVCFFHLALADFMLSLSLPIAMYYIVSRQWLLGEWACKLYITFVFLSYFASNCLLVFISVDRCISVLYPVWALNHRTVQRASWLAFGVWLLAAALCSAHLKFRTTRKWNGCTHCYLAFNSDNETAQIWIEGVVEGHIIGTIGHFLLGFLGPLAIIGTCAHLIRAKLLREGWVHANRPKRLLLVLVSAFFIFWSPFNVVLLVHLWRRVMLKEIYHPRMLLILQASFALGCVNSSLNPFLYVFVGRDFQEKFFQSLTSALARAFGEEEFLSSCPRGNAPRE

activation, inactive:
CC(=O)N1c2ccc(S(=O)(=O)N3CCCCCC3)cc2CC1C(=O)NCc1cccc(F)c1 (centres undefined) -26.4%
Clc1cccc(N2CCN(c3nc4ccccc4c4nc(-c5cccnc5)nn34)CC2)c1 0.0211%
Cc1ccc(S(=O)(=O)c2nc(-c3cccs3)oc2SC(C)c2ccccc2)cc1 (centres undefined) -24.7%
CCS(=O)(=O)N1CCc2cc(C(=O)N3CCN(c4ccccc4)CC3)ccc21 23.8%
CCCCC(=O)Nc1cc(-c2nc3ccccc3o2)ccc1OC 11.5%
CCOc1ccc(CC(=O)NCCS(=O)(=O)N2CCN(c3ccccc3OC)CC2)cc1 17.6%
CCOC(=O)c1noc2ncn(CC(=O)Nc3ccc(OC)c(Cl)c3)c(=O)c12 19.1%
Cc1ccc(Cc2nc3ccccc3nc2SCC(=O)N2CCCCC2)cc1 -16.9%
Cc1nc(C)c(CCNS(=O)(=O)c2ccc(C)c(C)c2)s1 19.4%
CCOc1ccccc1NC(=O)c1c(NCc2ccc(C)o2)sc2c1CCCCC2 -13.7%
O=c1oc2c(F)cc(F)cc2cc1S(=O)(=O)c1ccc(F)cc1 -13.7%
CCOc1ccc(CN2CCN(S(=O)(=O)c3ccc(Cl)cc3)CC2)cc1 -15.2%
CCOc1ccc(N(CC)C(=O)c2cc3c(=O)oc4ccccc4c3s2)cc1 21.3%
Cc1oc(-c2ccccc2F)nc1CN1CCC(C(=O)NCCc2ccc(Cl)cc2)CC1 14.4%
O=C(Cn1cc(S(=O)(=O)c2ccc(F)cc2)c(=O)c2cc3c(cc21)OCO3)Nc1ccccc1 -17.5%
Cc1ccn2c(=O)c(C(=O)Nc3ccc(F)c(C(F)(F)F)c3)cnc2c1 20.4%
CCOc1ccc(-c2nonc2NC(=O)c2oc3ccc(Cl)cc3c2C)cc1 -11.2%
Cc1cccc(NC(=O)C(=O)NCC(c2cccnc2)N2CCc3ccccc32)c1C (centres undefined) -3.32%
CCOC(=O)c1cc(=O)c2c(OCC(COc3cccc4oc(C(=O)OCC)cc(=O)c34)OC(=O)[C@@H](N)CCCCN)cccc2o1 4.16%
COc1ccc(-c2nnn3c2nc(NCc2ccccc2)c2ccccc23)cc1 22.3%
COC(=O)c1ccccc1NC(=O)CCCn1nc(C)c2sc3ccccc3c2c1=O -2.07%
COc1cccc(NC(=O)c2oc3ccccc3c2NC(=O)COc2ccccc2C)c1 0.177%
CC1=C(C(=O)Nc2ccc(C)cc2C)C(CC(C)C)n2nc(SCc3ccccc3C)nc2N1 (centres undefined) 5.91%
COc1ccc(Br)cc1CNC(=O)CCC(=O)N1CCSc2ccccc21 -19.8%
COc1ccccc1CNC(=O)Nc1ccc2c(c1)N(C)C(=O)c1ccccc1S2 -11.9%
O=C(CSc1nc2c([nH]c3ccccc32)c(=O)n1-c1ccc(F)cc1)N1CCCCCC1 -1.67%
COc1cc(NC(=O)CCc2c(C)nc3c(c(C)nn3-c3ccccc3)c2C)cc(OC)c1OC 35.1%
CN1C(=O)C2CCCCN2c2ccc(C(=O)NCc3ccccc3Br)cc21 (centres undefined) -17.8%
COc1cccc2cc(-c3nc(-c4cccs4)no3)c(=O)oc12 -2.83%
O=C(Cn1cc(SCc2cccc(C(F)(F)F)c2)c2ccccc21)N1CCCCCC1 -30.7%
Cc1ccc(NS(=O)(=O)c2c(C(=O)N3CCCCCC3)c(C)n(C)c2C)cc1F -0.0676%
COc1cccc(-c2cc(C(=O)NCCc3ccc(C)cc3)[nH]n2)c1 15.8%
CCOC(=O)c1c(C)c(C(=O)NCCc2ccc(OC)cc2)c(C)n1CC 2.35%
CCOc1ccc(CNC(=O)Cn2nc(C)c3sc4ccccc4c3c2=O)cc1 -12.6%
NCC(O)C1CCCCCCC1 (centres undefined) 9.95%
O=C(Nc1ccc(Br)cc1)c1ccc(Br)c(S(=O)(=O)NCc2ccccc2)c1 1.65%
CCc1nn(CC(=O)Nc2c(C)cc(C)cc2C)c(=O)c2cc3sccc3n12 -9.16%
C=Cc1ccc(Cn2c(=O)n(-c3ccccc3C)c(=O)c3c4c(sc32)CN(C(C)=O)CC4)cc1 -22.4%
Cc1ccc(N(C)S(=O)(=O)c2ccc3[nH]cc(C(=O)O)c(=O)c3c2)cc1C -19.4%
Cc1ccc(C(c2sc3nc(-c4ccco4)nn3c2O)N2CCCCC2)cc1 (centres undefined) 8.91%
CC(=O)c1ccc(NC(=O)CSc2nc(-c3ccccc3F)nc3c2c(=O)n(C)c(=O)n3C)cc1 -3.3%
COc1ccc(C)cc1NC(=O)CN1C(=O)CCc2cc(S(=O)(=O)N3CCOCC3)ccc21 11.2%
Cc1ccc(C(=O)Nc2ccc3c(c2)N(C)C(=O)c2ccccc2S3)cc1F -6.41%
CCN(Cc1ccccc1)C(=O)Nc1ccc2c(c1)N(C)C(=O)c1ccccc1S2 -12.7%
CCOC(=O)c1c(-c2ccc(C)cc2)csc1NC(=O)c1cc(=O)c2cc(C)c(C)cc2o1 -0.321%
CC1Cc2cc(S(=O)(=O)NCc3ccc(F)cc3)ccc2N1C(=O)C1CCC1 (centres undefined) 6.24%
CN1CCC(=C2c3ccccc3C=Cc3ccccc32)CC1 -6.87% and -12.6%
Cc1ccc(NC(=O)C2CCN(c3nc4ccccc4[nH]3)CC2)cc1Cl -22.6%
O=C(NCc1cccs1)c1ccc(CSc2nc3ccncc3n2Cc2cccc(F)c2)cc1 -9.25%
C=CCN1C[C@H](C(=O)N(CCCN(C)C)C(=O)NCC)C[C@@H]2c3cccc4[nH]cc(c34)C[C@H]21 7.5%
CCCC(=O)NCc1nc2cccnc2n1Cc1ccc(F)cc1 -8.52%
Cc1cccc(Cn2nnc3c(=O)[nH]c(C4CCN(C(=O)c5ccccc5F)CC4)nc32)c1 -17.5%
Cc1cccc(NC(=O)CSc2nc(=O)n(CCN3CCOCC3)c3c2CCC3)c1C -16.1%
O=C(Nc1cc(-c2nc3ccccc3o2)ccc1Cl)c1cccc2c(Cl)cccc12 -17.4%
Cc1ccc(NC(=O)Cn2c(=O)n(Cc3ccc4c(c3)OCO4)c(=O)c3ccc(C(=O)NC4CCCCC4)cc32)cc1 22.4%
CCOC(=O)c1ccc(NC(=O)Cc2coc3cc(C)cc(C)c23)cc1 -36.3%
CCN(C(=O)CSc1nnc(C)n2c1cc1occc12)c1ccccc1 -17.2%
CCOc1ccc(NC(=O)c2cc3c(=O)n4cccc(C)c4nc3s2)cc1 -8.51%
COc1ccc(S(=O)(=O)NCc2cccn2Cc2cccc(C)c2)cc1OC 24.5%
CCOC(=O)c1c(-c2ccccc2)oc2ccc(NS(=O)(=O)c3ccccc3)cc12 -6.91%
CCCCc1nn2c(=O)cc(COC(=O)c3ccccc3NC(=O)C3CCCCC3)nc2s1 -14.9%
O=C(CSc1cn(CC(=O)N2CCOCC2)c2ccccc12)Nc1ccccc1C(F)(F)F -17.2%
COc1ccc(CNC(=O)c2cnc(N3CCCC3)nc2C)cc1 -2.34%
Cc1cc([N+](=O)[O-])ccc1NC(=O)CSc1nccn1C -3.18%
CCOC(=O)CSc1nc2c([nH]c3ccccc32)c(=O)n1-c1ccc(OCC)cc1 -6.17%
COc1ccc(-c2c(C)c3ccc(O)c(CN4CCN(C)CC4)c3oc2=O)cc1OC 1.83%
COc1ccc2c(c1)c1c(c(=O)n(-c3cccc(Cl)c3)c(=O)n1C)n2C -0.0872%
Cc1ccccc1C(=O)Nc1nc2c(s1)CC(C(C)(C)C)CC2 (centres undefined) 1.26%
COc1ccc(S(=O)(=O)c2cn(CC(=O)Nc3ccccc3)c3ccc(Cl)cc3c2=O)cc1 32.7%
Cc1cccc2sc(N(Cc3cccnc3)C(=O)C3CCCCC3)nc12 -32.5%
COc1ccc(CSc2nc3ccncc3n2Cc2nc(-c3ccc(OC)c(OC)c3)oc2C)cc1 -15.4%
COc1ccc(C(=O)Nc2onc3c2CCCC3)cc1 13.1%
COCCCn1c(=N)c(C(=O)NC2CCCCC2)cc2c(=O)n3ccccc3nc21 13.2%
COc1ccc(NC(=O)Cn2cnc3c(nc4n3CCCCC4)c2=O)c(OC)c1 -10.7%
COc1ccc(C2=CC(c3ccc(N(C)C)cc3)n3nnnc3N2)cc1 (centres undefined) -19%
Cc1c(CNC2CCCCCC2)c(C(=O)O)c(C)n1Cc1c(F)cccc1Cl -2.86%
CCOC(=O)c1ccccc1NC(=O)Cc1c(C(=O)O)c(C)cn1C 1.37%
CCOC(=O)c1ccc(N2C(=O)c3n[nH]c(C)c3C2c2ccc(O)c(OC)c2)cc1 (centres undefined) 21.2%
COc1ccc(N2CCN(C(=O)Cn3cnc4sc(C)c(S(=O)(=O)N5CCC(C)CC5)c4c3=O)CC2)cc1 -11.7%
Cc1ccc(-n2ncc(C(=O)N3CCN(c4ccccn4)CC3)c2C2CCN(C(=O)OC(C)(C)C)CC2)cc1C -3.62%
Cc1cc(=O)oc2c3c(ccc12)OCN(Cc1ccccc1Cl)C3 -1.22%
Cc1cccc(CS(=O)(=O)CC2Nc3ccc(C(=O)NCc4ccccc4)cc3NC2=O)c1 (centres undefined) -3.5%
O=C(NC1(C(F)(F)F)NC(=O)N(CCc2ccccc2)C1=O)c1ccccc1F (centres undefined) 19.9%
COc1cccc(CSc2nc3cc(OC)c(OC)cc3c3nc(CCn4nc(C)cc4C)nn23)c1 -1.56%
